Measured values as given in ChEMBL document CHEMBL4888484, “Replenishing the malaria drug discovery pipeline: Screening and hit evaluation of the MMV Hit Generation Library 1 (HGL1) against asexual blood stage Plasmodium falciparum ,using a nano luciferase reporter read-out” (2022).
Among all 150,000 compounds or so, about 540 (0.36%) showed an effect of 50% or more. This is one part of the list.

Tested on: Plasmodium falciparum
Assay: Primary screen in NF54 nanoGlo assay, in single point, at 2uM, 72h; a lower Z score goes with more inhibition
Format: functional, Erythrocyte
Details: timepoint 72 hour

SMILES | % Inhibition | Z score
CN(C[C@H]1CC1(C)C)C(=O)c1cc(-c2cccc(O)c2)on1 | -20% | 2.47
CC1CN(C(=O)Nc2cc(F)cc(F)c2)CC2(CCCOC2)O1 (stereo not drawn) | -20% | 2.58
O=C(N[C@H]1CCC[C@@H]1O)c1c(Cl)cccc1Cl | -3% | 0.35
O=C(Cc1ccc(-c2ccccc2)cc1)N(Cc1ccccc1)C1CC1 | -13% | 1.25
Cc1ccc(NS(=O)(=O)N(C)C)c(Cl)c1 | 0% | -0.07
Cc1cccc(NC(=O)CC2CC3CCC2C3)c1 (stereo not drawn) | 4% | -0.58
O=C(CC1C=CCC1)N1CCOC(CF)C1 (stereo not drawn) | 6% | -0.73
COc1ccc(C2=NN=C(C)[C@@H]2CC(=O)Nc2ccc(-n3cnnn3)cc2)cc1 | -15% | 1.83
O=C(NCCNc1cccc(Br)c1)c1ccncc1 | -8% | 0.8
COc1ccc(C(=O)N2CCCN(Cc3ccsc3)CC2)cc1 | 5% | -0.67
COc1cc([C@H]2CC(=O)Nc3c2c(C)nn3-c2ncccn2)ccc1O | 31% | -3.54
CNC(=O)Cc1noc(CNC(=O)OC(C)(C)C)n1 | -2% | 0.29
CC[C@H](C)N=C(N)NCC1CCN(C(C)=O)CC1 | -8% | 1.31
O=C1C[C@H](c2nc(-c3cccc(Cl)c3)c[nH]2)CN1C1CC1 | 1% | -0.24
CC(=O)Nc1ccc(C(=O)N2C3C=CCC2CC3)cc1 (stereo not drawn) | 2% | -0.26
O=C(NCCc1ncc[nH]1)N1CC[C@@](O)(c2ccccc2)[C@H]2CCCC[C@H]21 | -16% | 1.73
Cc1nc(C#N)c(C#N)n1Cc1ncnn1CC(C)C | -15% | 1.3
COc1ccc(CNC(=O)c2ccc3nc(-c4ccc(OC)c(OC)c4)c(-c4ccc(OC)c(OC)c4)nc3c2)cc1 | 33% | -3.97
C[C@@H](CN1CC2(CCN(CCC(=O)N(C)C)CC2)OC1=O)c1ccccc1 | 6% | -0.88
CCOc1ccc(N(CC)S(=O)(=O)N2CCC[C@H](C(=O)Nc3ccc(C)c(F)c3)C2)cc1 | 15% | -1.41
CC(=O)c1ccc(N2CCOCC2)c(-c2ccc(C(=O)N3CCCC3)cc2)c1 | -12% | 2.4

SMILES | % Inhibition | Z score
CC(C)c1ccc(-c2cccc(C(=O)NCCCN3CCNC(=O)C3)c2)nn1 | -23% | 3.94
Cc1nnc(C(=O)N(CC2CC2)C(C)C)s1 | -13% | 1.88
CC(=O)Nc1ccc(Nc2cc(C)nc(N3CCCCC3)n2)cc1 | -9% | 0.92
Cc1cnc(NCCN2CCCCCC2)nc1N(C)C | -15% | 1.43
Cn1cccc1[C@@H](O)CNC(=O)C(=O)Nc1ccc(C(F)(F)F)cc1 | -11% | 1.87
C[C@H](NC(=O)CCc1ccccc1)c1nc(-c2ccncc2)cs1 | -5% | 0.57
O=C(O)C(CC1CC1)NC(=O)[C@H]1CC[C@H](c2ccccc2)C1 (stereo partly drawn) | -40% | 4.69
COc1ccc(CCc2nnc(NC(=O)Cc3c(F)cccc3Cl)s2)cc1 | 1% | -0.15
O=C(COCC(F)(F)F)N[C@@H]1C[C@H]2CC[C@@H]1O2 | -8% | 1.44
Cc1nc(C)c([C@H](C)NC(=O)c2cccnc2)s1 | 0% | 0.03
CC(C)c1noc([C@@H]2CCCN2CCCn2cnnn2)n1 | -3% | 0.37
Cc1ncn(C)c1C(=O)N[C@@H](C)c1nc(C2CC2)no1 | -2% | 0.23
COc1ccccc1C(=O)N1CCN(Cc2nc[nH]n2)CC1 | 3% | -0.52
Cc1ccc(CNCc2cccnc2N2CCC[C@H](O)C2)o1 | -12% | 1.99
CCc1nn(C)cc1CNC(=O)N1CCC(C)(CC(C)C)CC1 | -2% | 0.36
CCCc1ccc(OCCNS(=O)(=O)N2CCC(OC)CC2)cc1 | -8% | 1.5
Cc1nocc1Cc1noc(NCc2ccc3c(c2)OCO3)n1 | 12% | -1.61
Cc1cc(N2C[C@@H]3CN(C(=O)C4CCCC4)C[C@]3(C(=O)O)C2)ccn1 | -13% | 1.17
Cc1cnc(C)c(N2CCC(c3nc(C(C)C)no3)CC2)n1 | 3% | -0.35
Cc1nc2ccc(N3CC(C)(C)OC(C)(C)C3)nn2n1 | 2% | -0.28
O=C1CCC[C@@H](C(=O)N2CCCN(c3cccc(F)c3F)CC2)N1 | -12% | 2.28

SMILES | % Inhibition | Z score
Cc1cc(C(=O)NCCCNCc2cccnc2)c(Cl)cc1F | 31% | -3.95
O=C(Cn1cnc2ccccc2c1=O)N1CCc2ncccc2C1 | -3% | 0.41
COC(=O)c1c(NC(C)=O)c2cc(N)cnc2n1CCC(C)C | -3% | 0.4
O=c1[nH]nc(C(F)(F)F)n1C[C@H]1CCCO1 | -16% | 2.35
Cc1noc(C)c1C(=O)Nc1nc([C@@H]2CCCO2)n[nH]1 | -1% | 0.08
COCCC1(CNC(=O)C2C3CCCCC32)CCCCC1 (stereo not drawn) | -3% | 0.55
C[C@](O)(CNC(=O)CC=Cc1ccc(F)cc1)CN1CCOCC1 | -11% | 1.07
O=C1CN([C@@H](C(=O)Nc2cc(Cl)cc(Cl)c2)c2ccccc2)c2ccccc2N1 | -5% | 0.88
Cc1ncsc1CN(Cc1ccccc1)C(=O)C1=NNC(=O)CC1 | 0% | -0.01
O=C1COc2cccc(OCc3noc4c3CCCC4)c2N1 | -22% | 2.29
CC(C)N1Cc2cc(C(=O)NCc3cccs3)sc2C1 | 1% | -0.22
C[C@@H](CCNCc1ccnn1-c1ccc(F)cc1)N(C)C | -3% | 0.3
CC1CN(C(=O)CCC2CN(C(=O)OC(C)(C)C)C2)CC(C)O1 (stereo not drawn) | 4% | -0.75
C[C@@H](CS(C)(=O)=O)NS(=O)(=O)c1cccc(Cl)c1 | -10% | 1.41
Cc1ccc(Cl)cc1N1CCN(c2cc(C3CC(O)C3)ncn2)CC1 (stereo not drawn) | -8% | 0.98
COc1ccc2[nH]nc(C(=O)N3CCN(c4ccccc4Cl)C(=O)C3)c2c1 | 5% | -0.81
CC1(C)[C@@H]2CCC13CS(=O)(=O)N(CCOc1ccc(C#N)cc1)[C@H]3C2 | 22% | -2.82
COc1cc(-c2cc(C(=O)Nc3c(C)n(C)n(-c4ccccc4)c3=O)c3ccccc3n2)cc(OC)c1OC | 6% | -0.77
Cc1nnc(-c2cc(CCC(C)C)n(-c3cccc(C(=O)N[C@H]4CCCc5ccccc54)c3)n2)o1 | -4% | 0.69
CC1=C[C@@H](CNC(=O)C2CCCCC2)[C@H](C(C)C)C[C@H]1Cc1nc2cccc(C)c2[nH]1 | 0% | -0.07
COCCN1C[C@@H](CN2CCc3c(Cl)cccc3C2)CC1=O | -2% | 0.3

SMILES | % Inhibition | Z score
CN(CCCN1CCCCCC1)C(=O)C1(Nc2ccccc2)CCCC1 | 8% | -1.48
Cc1nc(NC(=O)N2C[C@@H]3OC(=O)N(C4CCN(C(C)C)CC4)[C@@H]3C2)cs1 | -13% | 2.06
Cc1cc2ccccc2nc1N1CCN(Cc2cnn3cccnc23)CC1 | 0% | 0.09
CC(C)[C@H](Cn1nccn1)NC(=O)c1ccc(C(F)(F)F)cc1 | -8% | 1.24
Cc1ncc(C(=O)N2CCC3(CC2)Cc2cn(nn2)CCCOc2ccc(cc2)CCNC3=O)cn1 | -1% | 0.15
O=C(Nc1nncs1)c1ccc(N2CCC3(CCCCC3)C2)nc1 | -4% | 0.56
Cn1cccc1C(=O)N1CCN(C(=O)C2CCCCC2)[C@@H](C(=O)N[C@H]2CCCNC2=O)C1 | 2% | -0.2
CN1N=C(C(=O)Nc2cc(CCc3ccccc3)n[nH]2)CCC1=O | -3% | 0.42
CC(=O)N(C)C1CCN(C(=O)c2cc(NS(=O)(=O)c3cccs3)ccc2O)CC1 | -7% | 0.68
COc1ccc(F)cc1CNS(=O)(=O)CC1C[C@@H]2COC[C@@H]2O1 (stereo partly drawn) | -6% | 1.09
COC[C@H](C)c1nc(CCN2C(=O)c3ccccc3C2=O)cs1 | -19% | 2.58
c1ccc(-c2noc(CCCN3CCC[C@H]3c3ncccn3)n2)cc1 | 12% | -1.58
CCc1cc(C(=O)Nc2cccc(F)c2)c2c(C)nn(Cc3ccccc3)c2n1 | 35% | -3.92
NC(=O)c1cc(Cl)ccc1OCC(=O)NC1CCN(Cc2ccccc2)CC1 | -6% | 1.22
O=C1NCCN1C(=O)NC[C@@H](c1ccco1)n1cccn1 | 7% | -0.9
C[C@@H](C(=O)NC1CC1)n1nc(-c2ccccc2)c2cc(Cl)ccc21 | 2% | -0.31
CCOCCCNC(=O)c1c(-c2ccccc2)nnc2ccc(C)cc12 | -4% | 0.46
Cc1ccc(Cl)cc1NC(=O)Cc1c(C)nc2nc(-c3cccnc3)nn2c1C | 10% | -1.78
Cn1cc(NC(=O)C[C@H](n2cccn2)C(F)(F)F)c(C(N)=O)n1 | 0% | -0.02
C=CCn1cc(-c2c(-c3ccccc3)ncn2CC(=O)Nc2ccccc2C)cn1 | 1% | -0.06
CCOC(=O)C1CCN(C(=O)COC(=O)c2cc(-c3ccc(Cl)c(Cl)c3Cl)nc3ccccc23)CC1 | 14% | -1.59
